Test results published in PubChem BioAssay AID360 (National Center for Advancing Translational Sciences (NCATS), 2006).
In all, about 48,000 compounds went through this assay and about 550 (1.1%) were called active. Not shown: some 4% with an inconclusive outcome. Cut-off read from the data, not from the text of the source: active = potency below about 15 µM; inconclusive = mostly about 16 µM to 33 µM; inactive = weaker than that. The list shows a part of the results.

Molecular target: Lysosomal acid glucosylceramidase (Homo sapiens) (UniProt P04062)
Chain of UniProt P04062 (P04062 whole entry, looked up): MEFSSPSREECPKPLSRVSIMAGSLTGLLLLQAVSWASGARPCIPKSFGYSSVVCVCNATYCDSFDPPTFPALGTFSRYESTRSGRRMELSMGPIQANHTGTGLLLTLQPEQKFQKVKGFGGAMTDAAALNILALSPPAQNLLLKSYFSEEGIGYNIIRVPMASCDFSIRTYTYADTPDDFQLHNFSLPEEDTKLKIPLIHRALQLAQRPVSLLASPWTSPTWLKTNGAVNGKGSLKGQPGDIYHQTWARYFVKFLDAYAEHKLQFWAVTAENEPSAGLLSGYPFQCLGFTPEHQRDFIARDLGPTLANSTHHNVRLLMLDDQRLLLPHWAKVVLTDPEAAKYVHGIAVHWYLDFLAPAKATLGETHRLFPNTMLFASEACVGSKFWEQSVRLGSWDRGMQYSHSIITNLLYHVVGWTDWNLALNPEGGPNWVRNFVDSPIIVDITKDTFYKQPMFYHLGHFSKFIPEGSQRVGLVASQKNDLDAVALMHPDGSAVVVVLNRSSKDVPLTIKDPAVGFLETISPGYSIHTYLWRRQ
Assay: Glucocerebrosidase;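 note: the screen sought inhibitors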
Settings: purified enzyme, resorufin glucoside fluorescence (screen aimed at inhibitors), 20 min
How it was run: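 Wild-type enzyme at 0.2 nM final in 50mM citric acid/KH2PO4, 10mM sodium taurocholate, 0.01% tween-20, pH 5.9, with resorufin beta-D-glucopyranoside at 30 uM final. Compounds titrated, 20 min at RT, red fluorescence read; AC50 from titration.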
Potency is the fitted concentration of half-maximal effect.

Row | SMILES | Potency
1 | CCCn1c(=O)c2c(nc(Br)n2CCC)n(C)c1=O | inactive: > 76.9 µM
2 | Cc1cccc(C)c1NC(=O)CSc1nnc(-c2ccoc2C)n1CCc1ccccc1 | inactive: > 76.9 µM
3 | Cc1cccc(Nc2nc(N)nc(CN3CCN(C)CC3)n2)c1 | inactive: > 76.9 µM
4 | OCc1ccnc2c(O)cccc12 | inactive: > 76.9 µM
5 | CCOC(=O)N1CCC(N(CCCOC)C(=O)Nc2ccc(CC)cc2)CC1 | inactive: > 76.9 µM
6 | O=C(CC1Nc2ccccc2NC1=O)Nc1ccccc1 (stereo unspecified) | inactive: > 76.9 µM
7 | Cn1c(=NC(=O)CN2C(=O)C3CC=CCC3C2=O)sc2ccccc21 (stereo unspecified) | inactive: > 76.9 µM
8 | O=C(Nc1ccc2c(c1)OCO2)c1cccc(S(=O)(=O)N2CCCC2)c1 | inactive: > 76.9 µM
9 | c1coc(Cn2c(SCc3nc4ccccc4[nH]3)nnc2-c2cccs2)c1 | inactive: > 76.9 µM
10 | CCOc1ccc(OCC)c(NC(=O)C2CCN(c3ncccn3)CC2)c1 | inactive: > 76.9 µM
11 | O=C(CCC(=O)NC1CC1)Nc1nnc(C2CCCCC2)s1 | inactive: > 76.9 µM
12 | Cc1ccc(CC2(O)CC(C)N(C)CC2C)c(C)c1 (stereo unspecified) | inactive: > 76.9 µM
13 | Cc1cc2ncn(S(=O)(=O)c3ccc(S(=O)(=O)N4CCOCC4)cc3)c2cc1C | inactive: > 76.9 µM
14 | CN(C)C(=O)N1CCC(C(=O)NCc2ccc(F)cc2Cl)CC1 | inactive: > 76.9 µM
15 | COc1ccc(CCNC(=O)CN2C(=O)c3ccccc3S2(=O)=O)cc1OC | inactive: > 76.9 µM
16 | CCS(=O)(=O)N1CCC(NC(=O)c2ccco2)CC1 | inactive: > 76.9 µM
17 | CCN1CCN(Cc2ccc(OC)c(OCc3ccccc3)c2)CC1 | inactive: > 76.9 µM
18 | COc1cccc(CNC(=O)c2ccc(NC(=O)C3CCCO3)cc2)c1 (stereo unspecified) | inactive: > 76.9 µM
19 | O=C1c2ccccc2C(=O)N1CCCCCc1nc(-c2ccccc2)no1 | inactive: > 76.9 µM
20 | Cc1cnc(-c2nnc(N(C)C(=O)c3cnccn3)s2)cn1 | inactive: > 76.9 µM
21 | CCc1ccc(N2CC(C)Cn3c2nc2c3c(=O)n(CCN3CCOCC3)c(=O)n2C)cc1 (stereo unspecified) | inactive: > 76.9 µM
22 | CCOC(=O)C(NC(=O)c1ccccc1OCC)(Nc1ncccn1)C(F)(F)F (stereo unspecified) | inactive: > 76.9 µM
23 | O=C(Nc1cccc2c1CCCC2)C1CCN(C(=O)NC2CCCCC2)CC1 | inactive: > 76.9 µM

Row | SMILES | Potency
24 | O=C(COc1ccccc1)NCC(=O)NC1=NCCS1 | inactive: > 76.9 µM
25 | Cc1ccc(-c2nnc(N(C)C(=O)c3cccnc3)s2)cn1 | inactive: > 76.9 µM
26 | CCc1cccc2c(=O)c(C(=O)N3CCOCC3)c[nH]c12 | inactive: > 76.9 µM
27 | COCC(=O)Nc1c(C(=O)Nc2cccc(OC)c2)oc2ccccc12 | inactive: > 76.9 µM
28 | Cc1ccc2c(c1)CCCN2C(=O)c1c(C)noc1C | inactive: > 76.9 µM
29 | N#CN(CC(N)=O)c1nc(N2CCCCC2)nc(N2CCCCC2)n1 | inactive: > 76.9 µM
30 | Fc1ccc(-c2ccc(-c3nn4c(-c5ccco5)nnc4s3)o2)cc1 | inactive: > 76.9 µM
31 | CCOc1ccc(N2C(=O)CSC23CCCCC3)cc1 | inactive: > 76.9 µM
32 | CC(C)n1cc(/C=C(\C#N)S(=O)(=O)c2ccccc2)c2ccccc21 | inactive: > 76.9 µM
33 | O=C(Cn1cnc2ccccc2c1=O)NCC(=O)N1CCN(c2ccccn2)CC1 | inactive: > 76.9 µM
34 | O=C(c1cn(-c2ccccc2)nc1-c1ccncc1)n1nnc2ccccc21 | inactive: > 76.9 µM
35 | Cc1cc(C)n2nc(SCN3C(=O)c4ccccc4C3=O)nc2n1 | inactive: > 76.9 µM
36 | Cn1c(=O)n(Cc2ccccc2F)c(=O)c2c1nc1n2CCCN1CCc1ccccc1 | active: 13.5 µM
37 | CCCC(c1nnnn1Cc1cccs1)N1CCN(C2CCCC2)CC1 (stereo unspecified) | inactive: > 76.9 µM
38 | CCc1cccc(CC)c1NC(=O)CN1CCN(c2ccccc2)CC1 | inactive: > 76.9 µM
39 | OC(COC1CCCCC1)CN1CCN(c2ccccc2)CC1 (stereo unspecified) | inactive: > 76.9 µM
40 | O=C(NC1CCCC1)C(c1cccs1)N(CC1CCCO1)C(=O)Cc1cccs1 (stereo unspecified) | inactive: > 76.9 µM
41 | Cc1occc1-c1nnc(SCC(=O)NCc2cccs2)n1-c1ccc(F)cc1 | inactive: > 76.9 µM
42 | NC(=O)C1CCN(C(=O)CN2CCN(c3cccc(C(F)(F)F)c3)CC2)CC1 | inactive: > 76.9 µM
43 | C=CCn1cnc2c(c1=O)c1nc3ccccc3nc1n2/N=C/c1cccc(OC)c1 | inactive
44 | CCOc1cc(N2CCOCC2)c(OCC)cc1NC(=O)CCS(=O)(=O)c1ccc(Cl)cc1 | inactive: > 76.9 µM
45 | COc1ccc(OCC(=O)Nc2ccc(N3CCOCC3)c(Cl)c2)cc1 | inactive
46 | CCCCC(=O)Nc1ccc(NC(=O)CC)cc1OC | inactive: > 76.9 µM

Row | SMILES | Potency
47 | CCn1cc(C(C)NC(=O)COc2ccc(Cl)cc2C)c(C)n1 (stereo unspecified) | inactive: > 76.9 µM
48 | CCOc1ccccc1Nc1ncnc2ccccc12 | inactive: > 76.9 µM
49 | CCOc1c2c(nc3ccc(Cl)cc13)CCC2 | inactive: > 76.9 µM
50 | Cc1ccc2[nH]c(=O)c(CN(Cc3cccs3)Cc3nnnn3CC3CCCO3)cc2c1 (stereo unspecified) | inactive: > 76.9 µM
51 | O=C(c1ccco1)N1CCN(c2ncnc3c2cnn3-c2ccccc2)CC1 | inactive: > 76.9 µM
52 | COC(=O)c1ccc(Cl)c(NS(=O)(=O)c2ccc3c(c2)OCCO3)c1 | inactive: > 76.9 µM
53 | COc1ccc(CNC(=O)c2csnn2)cc1 | inactive: > 76.9 µM
54 | Cc1ccc2[nH]c(C(=O)O)c(NC(=O)CN3CCN(c4cccc(C)c4C)CC3)c2c1 | inactive: > 76.9 µM
55 | c1coc(Cn2nnnc2CN2CCN(C3CCCCC3)CC2)c1 | inactive: > 76.9 µM
56 | O=C(CCC(=O)N(Cc1ccco1)C(C(=O)NC1CCCC1)c1ccncc1)Nc1cccnc1 (stereo unspecified) | inactive
57 | COc1cccc(C2=NOC(C(=O)Nc3cc(OC)c(OC)c(OC)c3)C2)c1 (stereo unspecified) | inactive: > 76.9 µM
58 | CCOC(=O)N1CCN(Cc2cc(=O)oc3cc4c(cc23)CCC4)CC1 | inactive: > 76.9 µM
59 | CCC1(NC(C)=O)CC2CC1CC2NC(C)=O (stereo unspecified) | inactive: > 76.9 µM
60 | COc1cc(OC)cc(-n2c3nc4ccccc4nc3c3c(=O)n(CC4CCCO4)cnc32)c1 (stereo unspecified) | inactive: > 76.9 µM
61 | C=CCN(C(=O)CNC(=O)c1ccco1)C(C(=O)NC1CCCCC1)c1ccccc1 (stereo unspecified) | inactive: > 76.9 µM
62 | COc1cc(-c2csc(N3CCOCC3)n2)cc(OC)c1OC | inactive: > 76.9 µM
63 | O=C(CCS(=O)(=O)Cc1ccccc1)N1CCN(Cc2ccccc2)CC1 | inactive: > 76.9 µM
64 | CCOC(=O)c1cccc(NC(=O)C2CCCO2)c1 (stereo unspecified) | inactive: > 76.9 µM
65 | O=C(C1CCN(S(=O)(=O)c2cccs2)CC1)N1CCc2ccccc2C1 | inactive: > 76.9 µM
66 | CCOC(=O)n1c(SCC(=O)N(CC)CC)nc2ccccc21 | inactive: > 76.9 µM
67 | CCOc1ccc(-c2noc(COC)n2)cc1OC | inactive: > 76.9 µM
68 | COc1ccc(N2CCN(c3ccc(NC(=O)C4CCCCC4)cc3C#N)CC2)cc1 | inactive: > 76.9 µM
69 | COC(=O)c1ccc(OC)c(CSc2nnc(COc3ccc(OC)cc3)o2)c1 | inactive: > 76.9 µM

Row | SMILES | Potency
70 | CCOC(=O)N1CCC(Nc2c(Nc3cccc(CC)c3)c(=O)c2=O)CC1 | inactive: > 76.9 µM
71 | COCCCN1C(=O)C(=O)/C(=C(/O)c2ccc(OC(C)C)cc2)C1c1ccc(O)c(OC)c1 (stereo unspecified) | inactive: > 76.9 µM
72 | COc1ccc(CN2CCC(C(=O)N(C)CCc3ccc(OC)c(OC)c3)CC2)c(OC)c1 | inactive: > 76.9 µM
73 | COCCn1c(-c2ccc(-c3ccccc3Cl)o2)nc2c1c(=O)[nH]c(=O)n2CC(C)C | inactive: > 76.9 µM
74 | Cc1ccc(C(=O)Nc2nccs2)cc1S(=O)(=O)N1CCCCC1 | inactive: > 76.9 µM
75 | O=c1cc(N2CCc3ccccc3C2)[nH]c(=O)n1C1CCCCC1 | inactive: > 76.9 µM
76 | COC(=O)CSc1cc(C)nc(NC(C)=O)n1 | inactive: > 76.9 µM
77 | N#CCSc1nc2ccccc2c(=O)n1CCC(=O)NCCc1ccccc1 | inactive: > 76.9 µM
78 | Cc1nc2ncnn2c(N2CCN(C(c3ccccc3)c3ccccc3)CC2)c1C | inactive: > 76.9 µM
79 | C=CCn1c(C)cc(C(=O)CN2C(=O)c3ccccc3C2=O)c1C | inactive: > 76.9 µM
80 | Cc1sc2ncnc(NCCCn3ccnc3)c2c1C | inactive
81 | CCN(CC)S(=O)(=O)c1ccc(C(=O)NC2=C(C(=O)OC)SCC2)cc1 | inactive: > 76.9 µM
82 | CNc1nc(OC)nc(N2CCOCC2)n1 | inactive: > 76.9 µM
83 | CCC(=O)c1cc2c(cc1NC(=O)c1ccc(C)cc1)OCCO2 | inactive: > 76.9 µM
84 | O=C(CN1CCCc2ccccc21)NCc1ccc2c(c1)OCO2 | inactive: > 76.9 µM
85 | C=CCn1c(SCC(=O)Nc2cccc(C)c2)nnc1-c1cnccn1 | inactive: > 76.9 µM
86 | O=C(Cn1nnc(-c2ccc(Cl)cc2)n1)NCCC1=CCCCC1 | inactive: > 76.9 µM
87 | Oc1c(C(Nc2nc3ccccc3s2)c2ccco2)ccc2cccnc12 (stereo unspecified) | inactive: > 76.9 µM
88 | Cc1cnn(C(=S)NCCc2ccccc2)c1 | inactive: > 76.9 µM
89 | CN(C)c1nc(N2CCOCC2)nc(N(c2ccccc2)c2ccccc2)n1 | inactive: > 76.9 µM
90 | COc1ccc(CNc2ccc(-c3ccc(OC)cc3)nn2)cc1 | inactive: > 76.9 µM
91 | CCC(CC)C(=O)Nc1cccc(C(=O)N2CCOCC2)c1 | inactive: > 76.9 µM
